Source: the RNAGym collection of RNA variant scans (doi:10.7554/elife.90254)
The source gives no read counts; variants with many changes may rest on few reads.

B1: LINE1-mini (parent)
chain: GGCAGAGCUCAACACAGCGUGGCAAAGUGGCUGUGGCUAGACUGCC

Variants of: B1
Assay: self-cleavage, relative activity (ratio to wild type); higher = more cleavage; in vitro, sequencing; the parent is a self-cleaving ribozyme

Variant	self-cleavage
A16U G21C G22U	0.08
G17A A24C A25C G36C	0.05
G17A G27U G33U	0.02
A16U G22C A39U	0.08
A16U G22U C23A	0.5
G17A A24C U32C C45A	0.03
G17A C23G C45A	0.03
A16U C31G A41C C42G	0.03
G17A G21U C37U	0.05
A16G G29A C37A	0.14
G17A U20C C46G	0.02
A16U G19U G40U	0.04
A16U A26G G29C	0.71
G17A G27C C42A	0.01
A16U A26G C37A C45G	0
A16U U20A C46U	0.07
A16U G30U G35A	0.01
A16U C18G A26U U32G	0.09
A16G G33C C46U	0
G17A U20G A25U G29A C31G	0.11
G17A G29U C31A	0.21
G17A C37G A39U	0.01
A16G G35U U43A	0.05
A16U G19U G27U G36A	0.14

Variant	self-cleavage
G17A C37U C46A	0.12
A16U A41C C46G	0
A16U A26C C37U	0.04
G17A U20C G21A G33U	0.04
A16U C18G G40A	0.02
A16U G40U G44A	0.03
A16U G17U G19A U38A C45U	0.07
A16G G33U G36U C37U	0
G17A G22U C23G	0.29
G17A U28A G33C	0.09
A16U G21A G27C G29A	0.9
A16U G21C U32C G35A	0.04
G17A G30A C37U	0.13
G17A G19C G44A	0.18
A16U G27U G36C	0.05
A16U G27U G36A	0.09
A16U C42U C45U	0.05
G17A G21A G30U G33U G40A	0.06
G17A G40A G44U	0.02
G17A G21A G40C	0.02
G17A C18A G22U	0.14
A16U G22U C42G	0.01
A16G G35U G36A	0.08
A16U G22A C23A C31U	0.01

Variant	self-cleavage
A16U A25G G30C	0.26
G17A A24C G33C G44A	0.01
A16U G30U U32C	0.02
A16U G21U A25G U28A U38A	0.97
G17A C18U C46G	0.04
G17A A24U C42A	0.04
A16U A26G U38A	0.17
A16U A24U G36A C42U	0.01
G17A A26C U28C G30A C42U	0.24
A16G U20G C42A	0.09
A16U A25G G33A	0.06
A16U C18G G21U G40C	0
A16U A26U C45U	0.14
A16G G35A U38C C42A	0.21
G17A C23U C42G	0.01
A16U C31A G40C C46U	0.01
A16U A25C G30C G35C	0.11
A16U C31G C42U U43A	0.01
G17A C23G C42A	0.02
A16U U20A C23U	0.07
A16U G19A C23U	0.16
A16U G29U G33U	0.31
G17A C18G A39U	0.02
G17A U20A G27A	0.49

Variant	self-cleavage
G17A G19C A24C G44A	0.08
A16U C18G G35U C46G	0.01
A16U U20C C23G	0.17
A16U G35A G36U	0.14
A16G U20G G35U	0.02
G17A G19C U32A	0.14
G17A G21A C46G	0.1
G17A G19U G33U G40U	0
A16U C23U G36C	0.03
G17A U20G G22U G40U	0.03
G17A C18U U20A G35U C46U	0.06
G17A C23A C45U	0.15
G17A C23A C45A	0.13
A16U G21U U32G A39G	0.06
A16G U20C G22U	0
A16G G35U G44U	0.02
A16U A26U U28C	0.06
A16U C18A G21A C23A C31G	0.01
A16U G36A C42U	0.03
A16G G27C G44A	0.08
A16G G30U U43C	0.01
G17A C31A G36A	0.03
A16G G30C U34A	0.03
A16G G33A G44A	0.02

Variant	self-cleavage
A16U U20G A25G A26C G36U	0.02
A16U G40C A41G	0
G17A A26U G27U U28G A39C	0.01
G17A A26G G27U	0.06
A16U C18A G35U	0.03
G17A G21A U28A C37G U38A	0.01
A16G G27U G33C	0.06
G17A U20G C42U	0.01
A16U C18U A26U	0.06
G17A G29A C46G	0.07
A16U G19A U20A A24G U34A A41U C45G	0.03
A16G G29A G30A	0.05
A16U C18A G21A	0.1
A16U G19U G27U G33U	0.03
G17A G19C U34C G40U C42U G44A C45A	0.02
A16U A26U G30C	0.45
G17A G33A G36U	0.02
A16U A24U A26U	0.43
G17A G33C G44U	0.03
G17A U20G G22C C42A	0.04
A16U U34A U43A	0.01
A16G G29C G40A	0.07
A16U G30C U32G A39G G44A	0
G17A C18A U20C C23A U32G U34C C37A C46U	0.03

Variant	self-cleavage
A16U G22C G33A C46G	0.08
G17A G29A G33C	0.03
G17A G21C A24U C37G	0.08
A16U G22C C37U C45A	0.01
A16U C31A A39G U43A	0.02
G17A C23A G30C U34G A41C G44C	0.02
G17A G27A G44A	0.47
A16U G22C G30U G35C G44U	0.05
A16U G19U A24U	0.05
A16U A26G G27A G36A C42G	0.02
G17A G21C C42G	0.06
A16G U20G G33A	0.08
G17A A24G U28A	0.01
G17A C23G U34A	0.02
G17A C23G G30C	0.06
A16U G30C A39C	0.03
G17A G19A G27A U34C	0.03
G17A G19C U20A A25G G36C	0.04
A16U C31G C45A	0.01
A16U U20A G36U	0.02
A16U G17U A24G	0.03
A16G U20G U38C	0.02
G17A C23A A26G	0.08
G17A G30U U34C U38A	0.04

Variant	self-cleavage
G17A C23G A24C	0.08
G17A G22U A26C G33C G40C U43G	0
A16U G33A C37A C46G	0.05
A16U C18U C31A	0.07
G17A A25C C37U C46A	0.05
A16G U38A C42U	0.07
G17A C18A U28A G36C A39U	0
G17A A26C G35U G36A G40A A41G	0.06
A16U C18A G30C C45U C46A	0.02
A16U G40A U43G	0.04
G17A G29C G30U C46G	0.08
G17A G19A C46G	0.3
G17A G21A A26U	0.26
G17A U20C G33U G44C	0.03
G17A G19A G33A U38A	0.01
A16U A26U G33U	0.13
A16U G19C G36U	0.06
G17A A25U U43A C46U	0.02
A16G G30C U32G	0.31
A16U A25U U38A C46G	0.01
A16G U20G A39U	0.05
A16U G17A U20A C31G G36C A39C	0
A16U G30A C31A G36C A41U	0.09
